The values that follow come from PMC3245249.

Chains of the proteins cited; added tags and fusions are not shown.
UniProt P39081: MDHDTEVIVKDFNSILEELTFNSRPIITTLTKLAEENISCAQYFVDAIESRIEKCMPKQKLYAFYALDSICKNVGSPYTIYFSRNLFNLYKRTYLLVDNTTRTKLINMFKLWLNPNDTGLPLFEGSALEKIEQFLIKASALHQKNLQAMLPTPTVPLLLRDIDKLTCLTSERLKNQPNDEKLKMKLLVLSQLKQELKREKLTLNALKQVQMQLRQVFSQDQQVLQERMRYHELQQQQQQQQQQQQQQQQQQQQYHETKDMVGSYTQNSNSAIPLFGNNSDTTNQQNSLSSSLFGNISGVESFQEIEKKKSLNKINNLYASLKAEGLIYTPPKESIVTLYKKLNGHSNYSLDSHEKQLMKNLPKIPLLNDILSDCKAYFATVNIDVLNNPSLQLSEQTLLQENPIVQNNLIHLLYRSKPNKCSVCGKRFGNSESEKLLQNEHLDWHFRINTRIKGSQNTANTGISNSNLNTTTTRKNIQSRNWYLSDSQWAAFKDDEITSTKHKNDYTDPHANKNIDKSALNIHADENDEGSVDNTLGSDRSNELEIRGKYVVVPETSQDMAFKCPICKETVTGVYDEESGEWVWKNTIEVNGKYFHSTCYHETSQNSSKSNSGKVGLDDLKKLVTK

One test deals with T1, ProtA-Clp1 (yeast) (UniProt Q08685).
T1 sequence: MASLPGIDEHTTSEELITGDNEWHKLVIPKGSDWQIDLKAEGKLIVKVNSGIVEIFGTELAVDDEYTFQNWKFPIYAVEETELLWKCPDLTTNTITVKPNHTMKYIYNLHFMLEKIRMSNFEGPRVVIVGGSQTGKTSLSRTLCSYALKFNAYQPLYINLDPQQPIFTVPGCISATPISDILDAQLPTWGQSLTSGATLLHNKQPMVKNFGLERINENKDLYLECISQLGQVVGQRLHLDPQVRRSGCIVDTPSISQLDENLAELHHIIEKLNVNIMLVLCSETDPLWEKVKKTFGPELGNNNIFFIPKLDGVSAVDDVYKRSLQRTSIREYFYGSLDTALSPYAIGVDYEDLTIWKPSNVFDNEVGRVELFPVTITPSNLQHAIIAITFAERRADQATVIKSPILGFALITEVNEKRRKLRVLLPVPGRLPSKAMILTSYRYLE
Briefly: co-IP; partial purification of CF IA from yeast by the ProtA tag on Clp1, final high salt wash (1 M KCl); Western blot for Rna15, Pcf11, Clp1 and Rna14 (Fig. 4A).

The target in a further test is GST-Pcf11 (yeast) (UniProt P39081). Put plainly: pull-down; GST-fusion protein (100 ng) incubated with in vitro translated [35S]-methionine-labelled protein for 1 h at room temperature; bound in 860 µl to glutathione sepharose equilibrated in PBS, 0.01% NP-40, 100 µg BSA; washed three times with IPP150 (20 mM Tris-HCl pH 8.0, 150 mM KCl, 0.01% NP-40); SDS-PAGE, autoradiography (Fig. 2B, 2C); only the target purified.

The target of test [1] is T2, GST-Ysh1 (yeast) (UniProt Q06224).
T2 sequence: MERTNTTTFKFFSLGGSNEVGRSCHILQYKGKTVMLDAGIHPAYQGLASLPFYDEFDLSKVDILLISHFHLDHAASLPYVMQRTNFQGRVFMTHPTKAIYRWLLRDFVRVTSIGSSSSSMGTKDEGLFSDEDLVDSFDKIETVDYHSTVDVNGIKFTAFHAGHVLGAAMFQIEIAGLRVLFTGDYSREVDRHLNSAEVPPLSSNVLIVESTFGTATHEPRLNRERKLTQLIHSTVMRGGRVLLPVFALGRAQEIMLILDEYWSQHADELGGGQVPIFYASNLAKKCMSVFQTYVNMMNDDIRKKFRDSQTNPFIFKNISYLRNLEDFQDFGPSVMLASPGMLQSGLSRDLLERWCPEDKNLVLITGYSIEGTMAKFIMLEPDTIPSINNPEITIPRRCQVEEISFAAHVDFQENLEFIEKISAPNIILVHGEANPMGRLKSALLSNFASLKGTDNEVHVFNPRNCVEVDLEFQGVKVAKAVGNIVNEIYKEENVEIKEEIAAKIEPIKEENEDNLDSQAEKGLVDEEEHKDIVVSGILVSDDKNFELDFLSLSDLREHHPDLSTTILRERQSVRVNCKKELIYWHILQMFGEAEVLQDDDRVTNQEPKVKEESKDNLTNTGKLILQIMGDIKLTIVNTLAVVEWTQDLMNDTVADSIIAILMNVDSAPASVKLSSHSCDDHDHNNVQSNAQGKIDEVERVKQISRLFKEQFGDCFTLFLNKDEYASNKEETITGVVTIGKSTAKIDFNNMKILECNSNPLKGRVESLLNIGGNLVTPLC
Described as above.

Another test has as its target T3, GST-Yra1 (UniProt Q12159).
T3 sequence: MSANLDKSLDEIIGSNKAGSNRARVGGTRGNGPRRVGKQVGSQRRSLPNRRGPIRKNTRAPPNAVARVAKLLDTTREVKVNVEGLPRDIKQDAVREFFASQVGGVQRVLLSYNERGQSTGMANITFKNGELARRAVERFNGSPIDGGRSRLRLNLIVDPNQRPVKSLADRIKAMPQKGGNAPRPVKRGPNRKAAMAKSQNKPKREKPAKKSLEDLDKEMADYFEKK
Described as above.

The next test deals with T4, GST-Rna14 (yeast) (UniProt P25298).
T4 sequence: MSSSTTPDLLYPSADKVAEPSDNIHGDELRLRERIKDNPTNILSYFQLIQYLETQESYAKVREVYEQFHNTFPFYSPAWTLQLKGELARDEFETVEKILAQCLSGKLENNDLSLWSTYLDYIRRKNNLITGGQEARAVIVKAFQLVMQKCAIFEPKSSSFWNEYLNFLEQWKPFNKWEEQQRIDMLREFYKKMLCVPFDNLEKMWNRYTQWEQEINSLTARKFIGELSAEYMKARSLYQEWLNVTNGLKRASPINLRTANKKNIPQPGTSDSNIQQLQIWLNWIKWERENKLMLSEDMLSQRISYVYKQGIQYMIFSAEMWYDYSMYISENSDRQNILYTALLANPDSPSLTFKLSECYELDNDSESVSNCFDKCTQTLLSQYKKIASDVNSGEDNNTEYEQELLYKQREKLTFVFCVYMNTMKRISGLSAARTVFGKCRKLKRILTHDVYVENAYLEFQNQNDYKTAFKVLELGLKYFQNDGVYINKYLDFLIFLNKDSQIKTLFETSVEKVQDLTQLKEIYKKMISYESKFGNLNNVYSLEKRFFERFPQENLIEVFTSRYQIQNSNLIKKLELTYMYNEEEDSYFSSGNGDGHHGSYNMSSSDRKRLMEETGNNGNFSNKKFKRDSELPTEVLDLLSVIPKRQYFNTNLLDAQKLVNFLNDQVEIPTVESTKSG
The test is described as above.

Test [2] concerns the target T2, GST-Ysh1 (yeast). Put plainly: pull-down; GST-Ysh1 with in vitro translated [35S]-labelled proteins; all binding reactions contained labelled Pta1 and increasing concentrations of wild-type or mutant Clp1 (Fig. 2D); only the target purified.
In the next test the target is T5, GST-Rna15 (yeast) (UniProt P25299).
T5 sequence: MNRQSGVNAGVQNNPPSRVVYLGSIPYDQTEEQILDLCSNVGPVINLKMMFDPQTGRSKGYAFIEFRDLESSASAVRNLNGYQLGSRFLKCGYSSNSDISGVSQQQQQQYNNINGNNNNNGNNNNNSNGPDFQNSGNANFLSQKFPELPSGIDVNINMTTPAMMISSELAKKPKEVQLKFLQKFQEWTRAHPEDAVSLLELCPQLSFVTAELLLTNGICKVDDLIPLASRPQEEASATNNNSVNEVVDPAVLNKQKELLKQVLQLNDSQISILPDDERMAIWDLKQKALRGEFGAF
Briefly: pull-down; GST-fusion protein (100 ng) incubated with in vitro translated [35S]-methionine-labelled protein for 1 h at room temperature; bound in 860 µl to glutathione sepharose equilibrated in PBS, 0.01% NP-40, 100 µg BSA; washed three times with IPP150 (20 mM Tris-HCl pH 8.0, 150 mM KCl, 0.01% NP-40); SDS-PAGE, autoradiography (Fig. 2B, 2C); only the target purified.

Results are given in words; binding and its absence hold for the method and conditions named. Binding seen in cells or lysates may run through a third protein. Some binding calls cover weakened binding; strength is not graded here. For some assays here: Tags and fused reporters may be left off the sequences shown.

Turning to “Pcf11, endogenous in yeast (from UniProt P39081 1-626)”, the binding result with ProtA-Clp1 (yeast) is recorded as “binds”.

B1: Clp1, full-length wild-type, in vitro translated (protein, UniProt Q08685 1-445)
chain: MASLPGIDEHTTSEELITGDNEWHKLVIPKGSDWQIDLKAEGKLIVKVNSGIVEIFGTELAVDDEYTFQNWKFPIYAVEETELLWKCPDLTTNTITVKPNHTMKYIYNLHFMLEKIRMSNFEGPRVVIVGGSQTGKTSLSRTLCSYALKFNAYQPLYINLDPQQPIFTVPGCISATPISDILDAQLPTWGQSLTSGATLLHNKQPMVKNFGLERINENKDLYLECISQLGQVVGQRLHLDPQVRRSGCIVDTPSISQLDENLAELHHIIEKLNVNIMLVLCSETDPLWEKVKKTFGPELGNNNIFFIPKLDGVSAVDDVYKRSLQRTSIREYFYGSLDTALSPYAIGVDYEDLTIWKPSNVFDNEVGRVELFPVTITPSNLQHAIIAITFAERRADQATVIKSPILGFALITEVNEKRRKLRVLLPVPGRLPSKAMILTSYRYLE
modifications: [35S]-methionine-labelled
In the case of B1, the binding entry is recorded as “binds” with GST-Pcf11 (yeast); “binds” with GST-Ysh1 (yeast) [1]; “no binding (tested: 100 ng GST-fusion protein in 860 µl)” with GST-Yra1; “binds weakly” with GST-Rna14 (yeast); “binds weakly” with GST-Ysh1 (yeast) [2].

B2: Clp1 T137A, full length, in vitro translated (protein, UniProt Q08685 1-445)
chain: MASLPGIDEHTTSEELITGDNEWHKLVIPKGSDWQIDLKAEGKLIVKVNSGIVEIFGTELAVDDEYTFQNWKFPIYAVEETELLWKCPDLTTNTITVKPNHTMKYIYNLHFMLEKIRMSNFEGPRVVIVGGSQTGKASLSRTLCSYALKFNAYQPLYINLDPQQPIFTVPGCISATPISDILDAQLPTWGQSLTSGATLLHNKQPMVKNFGLERINENKDLYLECISQLGQVVGQRLHLDPQVRRSGCIVDTPSISQLDENLAELHHIIEKLNVNIMLVLCSETDPLWEKVKKTFGPELGNNNIFFIPKLDGVSAVDDVYKRSLQRTSIREYFYGSLDTALSPYAIGVDYEDLTIWKPSNVFDNEVGRVELFPVTITPSNLQHAIIAITFAERRADQATVIKSPILGFALITEVNEKRRKLRVLLPVPGRLPSKAMILTSYRYLE
modifications: [35S]-methionine-labelled
On to B2, for which the binding result with GST-Pcf11 (yeast) is “no binding (tested: 100 ng GST-fusion protein in 860 µl)”; with GST-Ysh1 (yeast) [1], “binds”; in the test with GST-Yra1, “no binding (tested: 100 ng GST-fusion protein in 860 µl)”; with GST-Rna15 (yeast), “no binding (tested: 100 ng GST-fusion protein in 860 µl)”; in the test with GST-Rna14 (yeast), “binds weakly”.

B3: Clp1 D161A, full length, in vitro translated (protein, UniProt Q08685 1-445)
chain: MASLPGIDEHTTSEELITGDNEWHKLVIPKGSDWQIDLKAEGKLIVKVNSGIVEIFGTELAVDDEYTFQNWKFPIYAVEETELLWKCPDLTTNTITVKPNHTMKYIYNLHFMLEKIRMSNFEGPRVVIVGGSQTGKTSLSRTLCSYALKFNAYQPLYINLAPQQPIFTVPGCISATPISDILDAQLPTWGQSLTSGATLLHNKQPMVKNFGLERINENKDLYLECISQLGQVVGQRLHLDPQVRRSGCIVDTPSISQLDENLAELHHIIEKLNVNIMLVLCSETDPLWEKVKKTFGPELGNNNIFFIPKLDGVSAVDDVYKRSLQRTSIREYFYGSLDTALSPYAIGVDYEDLTIWKPSNVFDNEVGRVELFPVTITPSNLQHAIIAITFAERRADQATVIKSPILGFALITEVNEKRRKLRVLLPVPGRLPSKAMILTSYRYLE
modifications: [35S]-methionine-labelled
B3: the binding entry with GST-Ysh1 (yeast) [1] is “binds”; with GST-Yra1 it was “no binding (tested: 100 ng GST-fusion protein in 860 µl)”; with GST-Rna15 (yeast) it was “no binding (tested: 100 ng GST-fusion protein in 860 µl)”; with GST-Rna14 (yeast), “binds weakly”; in the test with GST-Ysh1 (yeast) [2], “binds”.

B4: Clp1 K136A T137A, full length, in vitro translated (protein, UniProt Q08685 1-445)
chain: MASLPGIDEHTTSEELITGDNEWHKLVIPKGSDWQIDLKAEGKLIVKVNSGIVEIFGTELAVDDEYTFQNWKFPIYAVEETELLWKCPDLTTNTITVKPNHTMKYIYNLHFMLEKIRMSNFEGPRVVIVGGSQTGAASLSRTLCSYALKFNAYQPLYINLDPQQPIFTVPGCISATPISDILDAQLPTWGQSLTSGATLLHNKQPMVKNFGLERINENKDLYLECISQLGQVVGQRLHLDPQVRRSGCIVDTPSISQLDENLAELHHIIEKLNVNIMLVLCSETDPLWEKVKKTFGPELGNNNIFFIPKLDGVSAVDDVYKRSLQRTSIREYFYGSLDTALSPYAIGVDYEDLTIWKPSNVFDNEVGRVELFPVTITPSNLQHAIIAITFAERRADQATVIKSPILGFALITEVNEKRRKLRVLLPVPGRLPSKAMILTSYRYLE
modifications: [35S]-methionine-labelled
Turning to B4, the binding result with GST-Ysh1 (yeast) [1] is “binds”; in the test with GST-Yra1, “no binding (tested: 100 ng GST-fusion protein in 860 µl)”; with GST-Rna14 (yeast) it was “binds weakly”; with GST-Ysh1 (yeast) [2] it was “binds”.
